Among the data in PubChem BioAssay (NCI) are GI50 and TGI values, retold here.

Values joined by “and” are separate entries in the source; they are usually repeats but may differ in a detail not shown here. Equal values may be shown once.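 Cells were grown in 96-well plates and exposed to each compound for 48 hours at five concentrations; endpoints were interpolated linearly between bracketing concentrations, or set to the highest concentration if not reached. GI50: concentration for 50% inhibition of growth. At the TGI there is no net growth.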 Bounds are passed on as bounds.

For this assay, the system named is NCI-H322M lung. The assay can be described thus: inhibition of tumour cell growth, NCI panel, 48 h.
For the compound `Cn1cc(-c2csc(-c3cn(CCCN4CCCCC4)c4ccccc34)n2)c2cccnc21`, the GI50 was 1.67 µM and the TGI was determined as 3.08 µM. `CCOc1cc2c(c(OCC)c1O)CC[C@@H]1[C@@H]2CC[C@]2(C)[C@@H](O)CC[C@@H]12` showed a TGI above 100 µM. `Cc1cc(S(=O)(=O)/N=C(\[N-]S(=O)(=O)c2cc(Cl)sc2Cl)[n+]2ccc(N(C)C)cc2)c(S)cc1Cl` gave a TGI above 100 µM.

Regarding `CCOP(=O)(OCC)OC1c2[nH]cc(C(=O)OCc3ccccc3)c2-c2cc(C(=O)OC)[nH]c2C1OC` (stereo not drawn), the TGI was above 100 µM.

For `CCC[CH2][Sn]1([CH2]CCC)[O]C2C(CO)OC(n3ccc(N)nc3=O)C2[O]1` (stereo not drawn), the GI50 was 1.68 µM and the TGI is 3.12 µM. In turn, `CCCCCCCCCCCCCCCCCCOCC(O)COP(=O)(O)OCC1OC(n2ccc(N)nc2=O)C(O)C1O` (stereo not drawn) yielded a TGI above 100 µM. As to `CCOC(=O)/C(O)=C(/C(=O)OC)c1ccc(Cl)cc1`, the TGI is above 100 µM. Take `N#Cc1c(O)c(/C=N/c2ncccn2)c(=O)n2c1[nH]c1ccccc12`: the TGI was above 100 µM. In turn, `Nc1nc(-c2ccco2)cc(-c2ccc(CO)o2)n1` displayed a TGI above 100 µM. On the same count and under the same terms, the same measure for `Cc1cnc2sn(-c3ccc(Br)cc3)c(=O)c2c1`: above 100 µM. With `CC(C)CCNCC(O)Cn1c2ccccc2c2ccccc21` (stereo not drawn), the GI50 was 15.5 µM and the TGI was 30.3 µM. `O=C(O)C(CS)NCc1c2ccccc2nc2ccccc12` (stereo not drawn) returned a TGI above 100 µM. For the compound `COc1ccc(/C=C2\C[C@H]3[C@@H]4CCC5=CC(=O)CC[C@]5(C)[C@H]4CC[C@]3(C)C2=O)cc1OC`, the TGI was above 100 µM. For `CCOC(=O)NN(C(=O)OCC)c1c(C)cc(C)cc1C`, the TGI is above 100 µM. `CC(C)N(C(C)C)S(=O)(=O)C[C@]12CC[C@H](CC13OCC(CS(=O)(=O)c1ccccc1)O3)C2(C)C` (stereo partly drawn) gave a TGI above 100 µM. `CCCN(CCC)C(=O)C(=O)c1c(N)[nH]n(-c2ccccc2)c1=O` yielded a TGI above 100 µM. Turning to `COC(=O)C12OC3CO[Si](C(C)C)(C(C)C)O[Si](C(C)C)(C(C)C)OC3C1Oc1nc(=O)ccn12` (stereo not drawn), the TGI is 30.5 µM.

Turning to `CCOC(=O)C(Cl)(NC(=O)OCc1ccccc1)C(F)(F)F` (stereo not drawn), the TGI was above 100 µM. In turn, `CC(Cl)CC(=O)OCC1CCCN2CCCCC12` (stereo not drawn) came in with a TGI above 100 µM.

`C[CH2][Sn]([CH2]C)([O]C(=O)c1ccccc1F)[O][Sn]([CH2]C)([CH2]C)[O]C(=O)c1ccccc1F`: the GI50 is above 86.5 µM and the TGI was above 100 µM.

In the case of `O=C(c1ccccc1)N1C(=S)N(c2ccccn2)C(=Nc2ccccc2)C1=Nc1ccccc1`, the TGI is above 100 µM. For `COc1cccc(/C=C2\S/C(=N/Nc3nc(-c4ccc([N+](=O)[O-])cc4)cs3)NC2=O)c1O`, the TGI worked out at 57.7 µM.

In the case of `O1[As]2O[As]3O[As]1O[As](O2)O3`, the GI50 is 2.88 µM and the TGI turned out to be 9.36 µM. The matching figures for `Cc1ccc(-c2nc3nc(-c4ccccc4)nc(N4CCNCC4)c3o2)cc1`: 0.807 µM and 2.12 µM. Consider `CN(C)CC1CCC2=C(C1=O)C(c1ccc(Cl)c(Cl)c1)C1=C(CCC(CN(C)C)C1=O)O2` (stereo not drawn), for which the GI50 was 17.3 µM and the TGI was 31.2 µM. `C[C@]12CC[C@@H]3c4ccc(O)cc4CC[C@H]3[C@@H]1Cc1cnc(N)nc12`: the GI50 was 17.7 µM and the TGI amounted to 41.1 µM. `Cc1ccc(C(=O)N/N=C(\N=Nc2ccc(C(=O)O)cc2)c2ccc(N(CCC#N)CCC#N)cc2C)cc1` yielded a TGI above 100 µM. In the case of `CC(C)(C)c1[nH]nc2c1C(c1cc3ccccc3[nH]c1=O)Nc1cc(C(=O)OCc3ccccc3)ccc1N2` (stereo not drawn), the GI50 is 4.47 µM and the TGI is above 100 µM. For `CC[C@@]1(O)C(=O)OCc2c1cc1n(c2=O)Cc2c-1nc1ccccc1c2/C=N/NC(=O)c1ccc(N)cc1`, the TGI was above 100 µM. In the case of `CN1CC2CN(Cc3ccccc3)CCN2c2cccnc21` (stereo not drawn), the TGI was above 100 µM. `CN1CCc2[nH]nc(-c3n[nH]c4c3CN(C)CC4)c2C1` came in with a TGI above 100 µM. Consider `Cc1ccc(Nc2nc3c(=O)n(C)c(=O)n(C)c3nc2Nc2ccc(C)cc2)cc1`, for which the TGI was 41.6 µM. In the case of `CC(=O)[O][Sn]([CH2]c1ccccc1)([CH2]c1ccccc1)[CH2]c1ccccc1`, the GI50 was above 5.37 µM and the TGI was above 6.64 µM. As to `COc1ccc(Cl)c(Nc2nc3ccccc3nc2NS(=O)(=O)c2cccc(NC(=O)C(C)(C)N)c2)c1`, the GI50 is 6.97 µM and 8.24 µM; the TGI was 20.6 µM and > 10 µM. `COC(=O)c1cc2ccccc2c2c3c(ccc12)OCO3`: the GI50 was 104 µM and the TGI stood at 525 µM. `CCOC(=O)c1cccc(NC(=O)CI)c1` yielded a TGI of 9.97 µM. With `Cn1cccc1-c1cc(-c2ccc(Br)cc2)[nH]c(=O)c1C#N`, the GI50 was above 100 µM and the TGI is above 100 µM. In turn, `COC(=O)CC1c2ccccc2N2C(=O)Cc3c([nH]c4ccccc34)C12` (stereo not drawn) returned a TGI above 100 µM. On to `ON=C(CC(O)(C(F)(F)Cl)C(F)(F)Cl)CC(O)(C(F)(F)Cl)C(F)(F)Cl`, for which the TGI came to 4.47 µM. With `CCSc1nc(SCC)c2c(-c3ccc(OC)c(OC)c3)c(C#N)c(SCC)nc2n1`, the GI50 is 22 µM and the TGI came to 79.1 µM. The compound `CC(=O)Nc1cccc(N=NN(C)C)c1` yielded a TGI above 100 µM.

For the compound `c1ccc2[nH]c(-c3cc(-c4ccc5c(c4)OCO5)n[nH]3)nc2c1`, the GI50 was 6.29 µM and the TGI was 22.6 µM. In the case of `C=C1CC[C@@H]2[C@](C)(COC(C)=O)[C@H](OC(C)=O)CC[C@@]2(C)[C@@H]1CC(Nc1ccc(S(=O)(=O)Nc2ccc(Cl)nn2)cc1)C1=CCOC1=O` (stereo partly drawn), the GI50 was 2.97 µM and the TGI came out at 11.6 µM.

Take `BrCC[N+]12CC[N+](CCBr)(CC1)C2`: the TGI was above 100 µM. Turning to `Cc1cn2c(/C=C3/C(=O)Nc4ccc(O)cc43)c(C)nc2s1`, the GI50 was 3.15 µM and the TGI was determined as 17.2 µM. On to `Cc1ccc2c(=O)c3ccccc3sc2c1`, for which the TGI is above 100 µM. As for `CC1(C)[C@@H]2C[C@H]1c1cnc(-c3ccccn3)cc1C2CCCCC[C@@H]1c2cc(-c3ccccn3)ncc2[C@@H]2C[C@H]1C2(C)C` (stereo partly drawn), the TGI was 96.8 µM. With `Cc1nc2sccn2c1/C=C1/C(=O)Nc2cccc(Cl)c21`, the TGI was above 100 µM.

Turning to `Nc1ccccc1C#C/C=C\C#Cc1cccc(O)c1`, the GI50 is 7.85 µM and the TGI is 45.3 µM. The compound `Fc1ccc(C(OCCN2CC3CCC(C2)N3CCCc2ccccc2)c2ccc(F)cc2)cc1` came in with a TGI of 22 µM. `O=C1c2ccc3c4c(ccc(c24)C(=O)N1CCCNCc1ccccc1Cl)C(=O)N(CCCNCc1ccccc1Cl)C3=O`: the GI50 was 0.217 µM and the TGI stood at 0.772 µM.

`COc1cc(OC)c2[nH]c3c(O)c(-c4c(C)cc5c([nH]c6c(OC)cc(OC)cc65)c4O)c(C)cc3c2c1`: the TGI was found to be 16.4 µM. With `COC(=O)C1=C(C)NC(C)=C(C(=O)OCC(C)C)C1c1ccccc1[N+](=O)[O-]` (stereo not drawn), the GI50 is 4.86 µM and the TGI is 33.4 µM. In turn, `Cc1ccc(N(C)S(=O)(=O)c2ccccc2[N+](=O)[O-])cc1` came in with a TGI above 100 µM. `CN(C)C(=O)c1ccc([N+](=O)[O-])cc1` registered a TGI above 100 µM.

On to `CC(=O)OC(Cc1c(O)c2c(C)cccc2oc1=O)C(C)(C)O` (stereo not drawn), for which the TGI was above 100 µM. Same read-out and setting: under `COc1ccc(CC2(Cc3ccc(OC)cc3)CCOC2=O)cc1` stands above 100 µM. The compound `CCC1NC(N=Nc2ccc([N+](=O)[O-])cc2)(P(=O)(OC(C)C)OC(C)C)OC1=O` (stereo not drawn) had a TGI above 100 µM.
